Results taken from article PMC6212790.
This is one part of the list. At the low end of the ranking the order means little.

Each sequence was assayed against T1, GST-Rok (full length) (UniProt O34857) (assay: protein binding microarray). Settings: Rok is a gene silencer of Bacillus subtilis; high values mean tight binding; most listed sequences are background and not binding sites; double strand, one strand shown.
T1 sequence: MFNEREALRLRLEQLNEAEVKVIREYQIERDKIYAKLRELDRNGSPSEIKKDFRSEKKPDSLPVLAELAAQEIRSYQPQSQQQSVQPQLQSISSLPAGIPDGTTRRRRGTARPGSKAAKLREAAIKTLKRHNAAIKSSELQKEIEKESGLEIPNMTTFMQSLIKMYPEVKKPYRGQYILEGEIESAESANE
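Also: rank score from −0.5 (least bound) to 0.5 (best bound).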

| Sequence | binding signal [E-score] |
| --- | --- |
| GTGTCCCA | -0.229 |
| AACGTAAG | 0.0618 |
| GGGCTTGA | -0.268 |
| GGACTTTA | -0.192 |
| ACGTAAAG | 0.0236 |
| ATCTGAAC | 0.0438 |
| AACGTAAA | 0.0829 |
| ATAGGCGG | -0.11 |
| GGTGCTTA | -0.177 |
| ACAAGTAG | 0.254 |
| ACGCCGGC | -0.271 |
| GCCGAGGA | -0.37 |
| CATTTCCG | -0.115 |
| ACATATGT | 0.401 |
| ACTGGTTG | 0.107 |
| TCAGAAGA | -0.0825 |
| GCGAAAAA | 0.0852 |
| ACTGCTTG | -0.044 |
| AATGTGCC | 0.0696 |
| CGTCGGCA | -0.211 |
| TACAACCA | 0.132 |
| GCCAAGAA | -0.0508 |

| Sequence | binding signal [E-score] |
| --- | --- |
| GCGCTTCC | -0.171 |
| AGACTGCT | -0.0678 |
| CATCCGGG | -0.0787 |
| ACTAGCTA | 0.347 |
| GCCCCAGC | -0.441 |
| CTCGCCGC | -0.198 |
| AACCTGCG | -0.0799 |
| CCGGCGTC | -0.252 |
| CATTCAGA | 0.0074 |
| ATAACCAT | 0.115 |
| CCAGAACC | -0.0913 |
| CATATCCC | 0.0535 |
| GCCGTAAA | 0.00925 |
| GGCTGGCA | -0.322 |
| ACACCACA | 0.204 |
| ATACCTCA | 0.199 |
| CCAAGAAG | -0.136 |
| CACTACAC | 0.0266 |
| CTGAGCTA | 0.0278 |
| CGCTCGGC | -0.334 |
| GGGCCACA | -0.27 |
| CACAAGTG | -0.125 |

| Sequence | binding signal [E-score] |
| --- | --- |
| GGCCAATA | -0.0748 |
| CGTGACCA | -0.0921 |
| TAGCCACA | -0.165 |
| CGGGAACA | -0.208 |
| GACGTGGC | -0.152 |
| AACCAAGG | -0.205 |
| ACGATCCA | 0.0221 |
| ACTTAATC | 0.191 |
| CTCGCGAC | -0.227 |
| GGAGTCTA | -0.0502 |
| ACCCTTAT | 0.0879 |
| ACGTCGCA | -0.0971 |
| CACTTACG | -0.0127 |
| ATCGTTCA | -0.0415 |
| TCGCAAAA | 0.0819 |
| GCGATCTA | 0.209 |
| ACTAATGG | 0.159 |
| CGCTGTAC | -0.12 |
| GCTTGTGA | 0.000844 |
| CAATTAGA | 0.17 |
| CGATGGCA | -0.126 |
| ATCGGTTG | 0.0574 |

| Sequence | binding signal [E-score] |
| --- | --- |
| AATTCATA | 0.0902 |
| TCCAAGAA | -0.00857 |
| GTTTCATA | 0.157 |
| AGTATGGG | 0.0114 |
| CGCTTGTC | -0.146 |
| CAATTTCC | 0.0102 |
| AAATTAGT | 0.293 |
| TCTTAGAA | -0.0577 |
| ATCCTGGG | -0.0382 |
| CTCATTCC | -0.169 |
| GCATTTAA | 0.115 |
| GTTGACTA | 0.226 |
| CGTCAGTC | -0.141 |
| CCAGGTAC | 0.00748 |
| CTGCTTTA | 0.0813 |
| CGAATACG | 0.111 |
| CGCGGACC | -0.26 |
| CACTCATA | 0.0892 |
| ACCCTATG | 0.0674 |
| AACGGCAA | 0.101 |
